Data published in PubChem BioAssay AID1745845 (National Center for Advancing Translational Sciences (NCATS), 2022).
The campaign covered roughly 360,000 compounds. About 2,600 (0.72%) were called active. The inconclusive results got no clear call from the source; some entries with a clear call stand among them for comparison. Calls follow the shape of the dose curve; as a rule, active = well fitted inhibition curve with a large enough effect; inconclusive = small, poorly fitted or top-dose-only effect; inactive = no such curve, though single readings can be large or run the other way. Where the call is inconclusive, the potency comes from a doubtful curve fit.

experiment: Primary qHTS for Inhibitors of ATXN expression; details: HEK-293 ATXN2-luciferase reporter, luminescence, 24 h; activity change, negative = inhibition: at 57 µM (top of the series); also: nearly all actives have a fitted effect of over 55% in size
Procedure, shortened: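 qHTS (up to 57 uM final) was run with 24 h compound exposure of reporter cells at 37 °C. Each well was multiplexed: SteadyGlo luminescence measured ATXN2-luciferase expression after a fluorogenic Gly-Phe-AFC viability readout (25 uM final).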
% is scaled to controls: 0 for no effect and ±100 for the full control effect; potency is read from the fitted curve at half-maximal effect; tags tell the direction and shape of the fitted curve.

Potency, active:
CC(C)C[C@H](NC(=O)CNC(=O)c1cc(Cl)ccc1Cl)B(O)O 0.306 µM

Potency, inconclusive:
Cc1nc2cc(C(F)(F)F)ccc2n1CCNc1nc(-c2ccc([N+](=O)[O-])c(Cl)c2)cs1 31.6 µM [inhibitor, single point]
COc1ccc(/C=C/C(=O)c2ccc([N+](=O)[O-])o2)cc1 12.6 µM [inhibitor, partial curve]
OCCN1CCN(c2nc(-c3ccccc3O)nc3ccccc23)CC1 7.08 µM [inhibitor, single point]
CC12COC3(P(=O)(c4ccccc4)c4ccccc4)CC1CCC23CP(=O)(c1ccccc1)c1ccccc1 (centres undefined) 28.2 µM [inhibitor, partial curve, poor fit]
Cc1n[nH]c(C)c1CS(=O)(=O)c1ccccc1 2.67 µM [inhibitor, partial curve, poor fit]
COc1ccc(C2C=C(c3cccc(OC)c3)Nc3c(C(=O)Nc4ccccc4)cnn32)cc1 (centres undefined) 25.1 µM [inhibitor, single point]
OC[C@@H]1CN(Cc2ccc(-c3ccccc3)cc2)C[C@H](n2cnc3c(NCc4ccc(F)cc4)ncnc32)O1 20 µM [inhibitor, partial curve]
COc1cc2cc(C(=O)NC(C)c3cccc4ccccc34)c(N)nc2cc1OC (centres undefined) 39.8 µM [inhibitor, single point]
O=C(NNC1=NS(=O)(=O)c2ccccc21)c1ccc([N+](=O)[O-])cc1 12.6 µM [inhibitor, partial curve, poor fit]
CCOC(=O)C1=C(O)/C(=C/c2cn(CC(=O)N3CCCC3)c3ccccc23)SC1=Nc1ccccc1 25.1 µM [inhibitor, single point]
Cc1cccc(N2CCN(C(=O)C3CCN(S(=O)(=O)c4cccc5cccnc45)CC3)CC2C)c1 (centres undefined) 11.2 µM [inhibitor, partial curve, poor fit]
CCN1CCN(Cc2ccc(NC(=O)c3ccc(C)c(NC(=O)c4cccc(-c5cn[nH]c(=O)c5)c4)c3)cc2C(F)(F)F)CC1 28.2 µM [inhibitor, single point]
CC(C)CC(COCc1ccc(C(F)(F)F)cc1)N1CCN(C(=O)c2ccc(C(F)(F)F)cc2)CCC1=O (centres undefined) 22.4 µM [inhibitor, single point]
C=CCn1c(SCc2nc3ccccc3c(=O)[nH]2)nc2scc(C3CC3)c2c1=O 39.8 µM [inhibitor, single point]
O=C(CSc1ccc(-c2ccccn2)nn1)Nc1ccc(F)c(F)c1 25.1 µM [inhibitor, single point]
COc1ccc(NC(=O)c2nnn(Cc3ccccc3C)c2N)c(OC)c1 1.78 µM [inhibitor, full curve]
Cc1ccc(C2CC(=O)N(Cc3ccccc3F)c3c2c(C)nn3-c2nc(C)cc(C)n2)cc1 (centres undefined) 25.1 µM [inhibitor, partial curve, poor fit]
CCn1ccnc1CN1CCCC(C(=O)c2ccc3cc(OC)ccc3c2)C1 (centres undefined) 37.7 µM [inhibitor, single point]
CCOc1ccc(NC(=O)c2ccc(NC(=O)CCS(=O)(=O)c3cccs3)cc2)cc1 6.31 µM [inhibitor, partial curve, poor fit]
COc1ccc(C(=O)Nc2cc(C)c(NC(=O)c3ccccc3OC)cn2)cc1 28.2 µM [inhibitor, single point]
O=C1N[C@H](Cc2ccccc2)COC(=O)[C@H](Cc2ccc(F)cc2)CC/C=C/C[C@@H]1CC(=O)N(CCO)Cc1ccccc1 39.8 µM [inhibitor, single point]
COc1cc(N2C(=O)C=CC2=O)c(OC)cc1Cl 22.4 µM [inhibitor, partial curve, poor fit]
CC1CCCN(S(=O)(=O)c2ccc(C(=O)Nc3nnc(-c4ccccc4Cl)o3)cc2)C1 (centres undefined) 15.8 µM [inhibitor, partial curve]
OC[C@@H]1[C@@H](c2ccc(Cl)cc2)C(c2cccc(Cl)c2)=NN1c1ccccc1 35.5 µM [inhibitor, single point]
O=S(=O)(NCCNCC=Cc1ccc(Br)cc1)c1cccc2cnccc12 43.2 µM [inhibitor, partial curve, poor fit]
Cc1ccc(-c2nc(C(=O)NCc3ccc(Cl)cc3)c3n2CCCCC3)cc1 22.4 µM [inhibitor, single point]

Activity change, negative = inhibition, inactive:
CN(C)c1cccc(C(=O)NNC(=O)CSc2ccccc2)c1 30.8%
O=C(NCCCN1CCOCC1)c1cc(-c2ccco2)nc2ccccc12 -10.4%
CSCc1c(C(=O)NCCc2ccccn2)oc2ccccc12 3.25%
CN1CCc2c(sc3c2C(=O)NC(c2ccccc2)N3)C1 (centres undefined) -3.21%
O=C(Nc1ccc2oc(-c3ccc(O)c(Br)c3)nc2c1)c1cc2ccccc2o1 10.1%
CC(C)Cn1c(SCC(=O)N2CCc3ccccc3C2)nc2cc(Cl)ccc2c1=O 0.961%
C=C(C)c1cccc(C(C)(C)NC(=O)Nc2nncs2)c1 -4.86%
CSc1cccc(NC(=O)COc2ccccc2)c1 26.3%
C=C[C@]1(C)C=C2CC[C@H]3[C@@](C)(CCC[C@@]3(C)C(=O)O)[C@@H]2CC1 8.43%
Cc1ccc(NC(=O)CN2CCCC2)cc1Br -3.05%
COc1ccc(NC(=O)c2cc(Br)ccc2Cl)c(OC)c1 0.211%
COc1ccc2[nH]c(CN3CCN(CC(C)C)C(CCO)C3)c(C)c2c1 (centres undefined) -5.53%
O=C(NC(=S)NCCc1ccccc1)c1cccc(Cl)c1 33.6%
COc1ccccc1C(=O)NCCSCc1ccccc1Cl -3.19%
CCc1nc2c(OCc3ccc(C(=O)N(C)C)cc3)cccn2c1N(C=O)Cc1ccccc1 -0.139%
OC(COc1ccccc1)CN1CCCCC1 (centres undefined) 2.75%
CC(=O)NC(C)(c1ccccc1)c1nc(-c2csc3ccccc23)cs1 (centres undefined) -19.8%
